# Reference: PubChem BioAssay AID1345083 (National Center for Advancing Translational Sciences (NCATS), 2018)
# Several values for one entry are separate records, joined by “and”; a condition that tells them apart may be missing. Identical values can stand only once. Among all 94,000 compounds or so, about 6,200 (6.6%) were called active. The inconclusive results got no clear call from the source; some entries with a clear call stand among them for comparison. The call rests on the fitted dose curve; in most records, active means well fitted inhibition curve with a large enough effect; inconclusive means small, poorly fitted or top-dose-only effect; inactive means flat fitted curve, though single readings scatter. Where the call is inconclusive, the potency comes from a doubtful curve fit.
# Experiment: Cytotoxic Profiling in HEK 293 Cell Line of Diverse Libraries Using Quantitative High-Throughput Screening; further: nearly all actives have a fitted effect of over 60% in size
# Details: HEK 293 viability, ATP luminescence (CellTiter-Glo), 48-72 h; activity change, negative = cytotoxicity: at 115 µM (top of the series) unless noted; series mostly up to 115 µM
# Method in brief: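 Read-out: CellTiter-Glo ATP luminescence. Cells: HEK 293, 250 cells/well. Exposure: 48 or 72 hr, 37 degree Celsius.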
# On the % scale 0 is the no-effect control and ±100 the full control effect; potency means the concentration at half of the fitted maximal effect; tags describe the fitted curve by direction and shape.
Compound,Potency,"activity change, negative = cytotoxicity",outcome
O=C(NCCc1ccc(F)cc1)c1cc(-c2cccs2)c2cccn2n1,"inconclusive: 22.4 µM [inhibitor, full curve, poor fit]",,
CCN(CC)C(=O)CCc1c(C)nn(-c2cccc(C)c2)c1Oc1ccc(F)cc1F,active: 25.1 µM,,
COc1cc(-c2onc(C)c2C(=O)N(C)Cc2ccccc2)cc(OC)c1OC,"inconclusive: 50.1 µM [inhibitor, partial curve, poor fit]",,
CN(C)C[C@@H]1CN(S(C)(=O)=O)C[C@H]1NC(=O)c1cccs1,,inactive: -0.0783%,
CN1CC(=O)N(c2ccccc2)Cc2c(NCc3ccc(F)cc3)ncnc21,"inconclusive: 79.4 µM [inhibitor, partial curve, poor fit]",,
O=C1CCN(C(=O)[C@@H]2CCCN2C(=O)Nc2ccccc2)CCCCCCN1,,,inactive
CN1CC(=O)N(c2ccccc2)Cc2c1ncnc2N1CCC(O)CC1,,inactive: -19.5%,
CN(C)C[C@@H]1CN(c2ccncn2)C[C@H]1NC(=O)Cc1c(F)cccc1Cl,,inactive: 3.41%,
O=C(C1CCCN1C(=O)c1cccc(-c2cccnc2)c1)N1CCOCC1 (stereo unspecified),,,inactive
Cc1ccccc1CNC(=O)C1CCCN(Cc2cccnc2)CCC(=O)NCC1 (stereo unspecified),,inactive: -7%,
CN(C)c1cccc(C(=O)N2CCCC(n3cc(-c4nc(C5CC5)no4)nn3)C2)c1 (stereo unspecified),"inconclusive: 44.7 µM [inhibitor, partial curve, poor fit]",,
CN1CC(=O)N(C2CCCNCC2)Cc2c1ncnc2N1CCC(C#N)CC1 (stereo unspecified),,inactive: -8.8%,
O=C(c1cc(F)ccc1F)N1CCN(c2cc(-c3ccc(F)cc3)[nH]n2)CC1,"inconclusive: 56.2 µM [inhibitor, partial curve, poor fit]",,
N#Cc1cccc(CN2CCC3(CC2)COCCN3C(=O)OCc2ccccc2)c1,"inconclusive: 7.94 µM [inhibitor, full curve, poor fit]",,
N#Cc1ccc(CN2CC(CNC(=O)Nc3ccccc3)C3(C2)CN(c2ccccc2)C3)cc1 (stereo unspecified),"inconclusive: 39.8 µM [inhibitor, full curve]",,
COc1ccccc1NC(=O)Cn1c(-c2ccc(F)cc2)nc(C)cc1=O,"inconclusive: 25.1 µM [inhibitor, full curve]",,
Cn1nc(-c2nncn2CC2CC2)c2c1CCN(C(=O)c1nn(C)c3ccccc13)C2,"inconclusive: 100 µM [inhibitor, single point]",,
O=C(c1ccccc1)N1CCC2(CC1)NC(=O)N(Cc1ccc(F)cc1)C2=O,"inconclusive: 39.8 µM [inhibitor, partial curve, poor fit]",,
CN(C)c1ccc(C(=O)NC2CC(c3nnc(CO)n3C3CC3)C2)cn1 (stereo unspecified),,inactive: 3.43%,
Cc1nn(C)c(C)c1S(=O)(=O)NCCc1noc(-c2cccnc2)n1,"inconclusive: 89.1 µM [inhibitor, single point]",,
CC(=O)Nc1ccc(CN2CCC3(CC(Cc4ccccc4)=NO3)C2)cc1 (stereo unspecified),"inconclusive: 56.2 µM [inhibitor, partial curve, poor fit]",,
Cn1nc(C2CCN(C(=O)c3cncc(Br)c3)CC2)c2c1CCOC2,,inactive: -0.178%,

Compound,Potency,"activity change, negative = cytotoxicity",outcome
O=C(NC1CCCCCC1)c1ccc2c(c1)CC(=O)N2Cc1cccc(F)c1,"inconclusive: 44.7 µM [inhibitor, partial curve]",,
CO[C@H]1[C@H](NC(=O)CCc2cccnc2)c2ccccc2C12CCNCC2,,inactive: -20.7%,
CC(C)CCNC(=O)CCC1CCCN(S(=O)(=O)c2cccc(F)c2)C1 (stereo unspecified),active: 44.7 µM,,
Cc1ccc(-c2cccc(CN3CCCC(NC(=O)c4ccc(Cl)nc4)C3)c2)cc1Cl (stereo unspecified),,inactive: -3.81%,
O=C1[C@@H]2C[C@@H](CN2C(=O)C2CC2)Oc2ccccc2N1Cc1cccnc1,,,inactive [at 172 µM]
COc1ccc(N2CCN(C(=O)c3cc4c(s3)CN(C3CCCC3)C4)CC2)cc1,,inactive: -12%,
O=C(C1CCCN1C(=O)C1CC1)N1CCC(N2Cc3cccn3C2=O)CC1 (stereo unspecified),,inactive: -7.3%,
O=C(Nc1ccc(Cl)cc1)N1CCCN(CCn2nc3n(c2=O)CCCC3)CC1,"inconclusive: 89.1 µM [inhibitor, single point]",,
COc1ccccc1C(=O)NC1CCCN(Cc2cccc(-c3ccc(C)c(Cl)c3)c2)C1 (stereo unspecified),active: 39.8 µM,,
COc1ccc(C(=O)N2CCC(N3C(=O)C4(CCCC4)C3c3ccccc3)CC2)cc1 (stereo unspecified),"inconclusive: 100 µM [inhibitor, partial curve, poor fit]",,
O=C(NC1CCCC1)c1ccc2c(c1)N(S(=O)(=O)c1ccccc1)CC2,"inconclusive: 50.1 µM [inhibitor, partial curve, poor fit]",,
Cc1ccc(S(=O)(=O)Nc2ccc3c(c2)CN(CCc2ccc(F)cc2)C(=O)C(C)O3)cc1F (stereo unspecified),"inconclusive: 50.1 µM [inhibitor, partial curve, poor fit]",,
CCN1CCN(CCCNC(=O)C2N(c3ccc(OC)cc3)C(=O)C23CCCCC3)CC1 (stereo unspecified),,inactive: -1.32%,
O=C(Nc1ccccc1)O[C@@H]1CO[C@H]2[C@@H]1OC[C@@H]2NC(=O)c1ccc2c(c1)OCO2,"inconclusive: 50.1 µM [inhibitor, partial curve]",,
COc1ccc(Cn2c3c(c(=O)n2Cc2ccccc2)CCN(Cc2cccc(O)c2)C3)cc1,,inactive: -8.01%,
Cc1ccccc1CN1CCc2nc(C(=O)N3CCOCC3)oc2CC1,"inconclusive: 100 µM [inhibitor, partial curve]",,
O=C(NC1CC1)[C@@H]1CN(Cc2ccc(Br)cc2)C[C@H]1CO,"inconclusive: 89.1 µM [inhibitor, partial curve, poor fit]",,
CN(C)C(=O)N1CCc2nc(-c3ccccc3)nc(-c3ccc(Cl)cc3)c2C1,"inconclusive: 56.2 µM [inhibitor, partial curve, poor fit]",,
CN(CCCc1cnn(C)c1)C(=O)[C@H]1CNC[C@@H](C(=O)N2CCOCC2)C1,,,inactive
Cc1cccc(-c2ncc(CN(C)Cc3cccc4ncccc34)cn2)c1,"inconclusive: 89.1 µM [inhibitor, single point]",,
Cc1ccccc1C(CC(=O)NCc1cccnc1)c1ccccc1 (stereo unspecified),"inconclusive: 56.2 µM [inhibitor, partial curve, poor fit]",,
Cc1ccccc1C(=O)N1CCC(c2nn(-c3ccccc3)c(=O)[nH]2)CC1,"inconclusive: 50.1 µM [inhibitor, partial curve, poor fit]",,

Compound,Potency,"activity change, negative = cytotoxicity",outcome
COc1ccccc1CCN1CCCC(CN(C)C(=O)Cn2cccnc2=O)C1 (stereo unspecified),,inactive: 0.0168%,
Cc1cc(C)cc(-c2ccc(CN3CCCC(NC(=O)c4ccccn4)C3)cc2)c1 (stereo unspecified),"inconclusive: 20 µM [inhibitor, full curve, poor fit]",,
Cc1ccc([S+](=O)([O-])NC2CCN(c3nccc(Nc4ccccc4F)n3)CC2)cc1,active: 28.2 µM,,
CC(=O)N1CCC(Cc2ccc(CN(C(=O)c3cccs3)C3CC3)cc2)CC1,"inconclusive: 20 µM [inhibitor, partial curve, poor fit]",,
O=C(NC1CCCN(c2cc(-c3ccc(Cl)cc3)[nH]n2)C1)c1cccs1 (stereo unspecified),"inconclusive: 56.2 µM [inhibitor, partial curve, poor fit]",,
CCC(=O)N1CCc2nc(N3CCN(C(=O)CCOC)CC3)sc2C1,,inactive: -2.82%,
CCN1c2cc(C(=O)Nc3ccc(OC(F)(F)F)cc3)ccc2C(=O)N2CCCCCC21 (stereo unspecified),active: 31.6 µM,,
CC(c1ccc(-c2ccc(N3CCN(C)CC3)nn2)cc1)N1CCCCC1 (stereo unspecified),"inconclusive: 89.1 µM [inhibitor, single point]",,
CN(Cc1cccc(C(F)(F)F)c1)C(=O)c1ccccc1Cl,active: 56.2 µM,,
CS(=O)(=O)N1CCCN(C(=O)NCc2ccccc2)CCNC(=O)CC1c1ccccc1 (stereo unspecified),,,inactive
O=C(C1CCCCC1)N1CC[C@H](c2nc3ccc(C(F)(F)F)cc3[nH]2)C1,"inconclusive: 79.4 µM [inhibitor, partial curve]",,
CS(=O)(=O)N1CCC(C2CCN(Cc3ccc(Br)o3)C2)CC1 (stereo unspecified),,inactive: -24.5%,
CN(C)C(=O)N1CCC(c2nc(CCOc3ccc(F)cc3)no2)C1 (stereo unspecified),"inconclusive: 50.1 µM [inhibitor, partial curve, poor fit]",,
CN1CCN(c2nc3c(s2)CN(C(=O)c2ccnn2C)CC3)CC1,"inconclusive: 50.1 µM [inhibitor, partial curve, poor fit]",,
Brc1ccc(-c2ccnc3nc(-c4ccco4)nn23)s1,"inconclusive: 35.5 µM [inhibitor, partial curve, poor fit]",,
OC1CCOC2(CCN(Cc3ccc(Br)o3)CC2)C1 (stereo unspecified),"inconclusive: 56.2 µM [inhibitor, partial curve, poor fit]",,
Cc1cc(C)cc(C2(CNC(=O)C3NCCc4[nH]cnc43)CCCC2)c1 (stereo unspecified),"inconclusive: 50.1 µM [inhibitor, partial curve, poor fit]",,
COc1ccc(S(=O)(=O)N2[C@@H]3CC[C@H]2CC(NC(=O)c2ccc(F)cc2)C3)cc1 (stereo partly specified),"inconclusive: 89.1 µM [inhibitor, single point]",,
Cn1ncc2c(C(=O)NCc3ccccn3)cc(-c3cccc(C(F)(F)F)c3)nc21,"inconclusive: 22.4 µM [inhibitor, full curve, poor fit] and inconclusive: 17.8 µM [inhibitor, full curve, poor fit]",,
COc1ccccc1-c1cc(C(=O)NCc2ccccc2)nn2cnnc12,"inconclusive: 89.1 µM [inhibitor, single point]",,
COc1cccc([S+](=O)([O-])N2CCC(C(=O)O)(c3ccccc3)CC2)c1,,,inactive
CS(=O)(=O)N1CCN(C(=O)CCC2CCN(c3cc(NC4CC4)ncn3)CC2)CC1,"inconclusive: 44.7 µM [inhibitor, partial curve]",,
